Laboratory results: PMC9161086, “Water-Soluble Trichogin GA IV-Derived Peptaibols Protect Tomato Plants From Botrytis cinerea Infection With Limited Impact on Plant Defenses” (Frontiers in Plant Science, 2022)

Test system: Botrytis cinerea strain B05.10
Experiment: Preventive efficacy against B. cinerea infection on detached tomato cv. Marmande leaves
Settings: in vivo
Description: Marmande leaves, according to the same procedure.

## CCCCCCCC(=O)NC(C)(C)C(=O)NCC(=O)N[C@@H](CC(C)C)C(=O)NC(C)(C)C(=O)N[C@@H](CCCCN)C(=O)NC(C)(C)C(=O)N[C@@H](CC(C)C)C(=O)NC(C)(C)C(=O)NCC(=O)N[C@H](C(=O)N[C@@H](CC(C)C)C(N)=O)[C@@H](C)CC [Pep 6r]
  Disease severity (necrotic lesion diameter), preventive treatment: did not show protection capacity
